The values that follow come from FireProtDB (doi:10.1021/bi051669r).

“And” between values parts separate entries of the source, which are not always exact repeats. Equal values may be shown once.

The conditions of this series: Homo sapiens, pH 7.4, CD, Sodium phosphate 10 mM, reversible: Yes.

For “Apolipoprotein A-I wild type (sequence left out)”, under “25 °C, GdnHCl”, the denaturant m value was found to be 2.5 kcal/mol/M; the “denaturant midpoint (higher = more stable)” value was 1 M and 2.3 M; the unfolding free energy was 2.5 kcal/mol and 4.1 kcal/mol. The “unfolding enthalpy (van 't Hoff)” value (Thermal) is 41 kcal/mol and 48 kcal/mol.
